The target in assay [1] is T1, human IL-2 receptor αβγ trimer on CHO-K1 cells (CHO-K1 hIL-2R αβγ 2D6) (human, UniProt P01589 22-272; P14784 27-551; P31785 23-369).
T1 construct: Full-length entries with signal peptides were cloned and expressed on CHO-K1 cells; also called CHO-K1 IL2R αβγ
T1 sequence 1: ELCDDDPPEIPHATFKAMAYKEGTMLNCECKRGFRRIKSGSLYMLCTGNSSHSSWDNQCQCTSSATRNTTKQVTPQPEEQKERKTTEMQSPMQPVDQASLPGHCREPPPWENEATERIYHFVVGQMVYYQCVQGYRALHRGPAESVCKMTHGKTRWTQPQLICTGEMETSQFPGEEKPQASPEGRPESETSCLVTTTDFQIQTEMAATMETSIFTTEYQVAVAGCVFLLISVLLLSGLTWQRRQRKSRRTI
T1 sequence 2: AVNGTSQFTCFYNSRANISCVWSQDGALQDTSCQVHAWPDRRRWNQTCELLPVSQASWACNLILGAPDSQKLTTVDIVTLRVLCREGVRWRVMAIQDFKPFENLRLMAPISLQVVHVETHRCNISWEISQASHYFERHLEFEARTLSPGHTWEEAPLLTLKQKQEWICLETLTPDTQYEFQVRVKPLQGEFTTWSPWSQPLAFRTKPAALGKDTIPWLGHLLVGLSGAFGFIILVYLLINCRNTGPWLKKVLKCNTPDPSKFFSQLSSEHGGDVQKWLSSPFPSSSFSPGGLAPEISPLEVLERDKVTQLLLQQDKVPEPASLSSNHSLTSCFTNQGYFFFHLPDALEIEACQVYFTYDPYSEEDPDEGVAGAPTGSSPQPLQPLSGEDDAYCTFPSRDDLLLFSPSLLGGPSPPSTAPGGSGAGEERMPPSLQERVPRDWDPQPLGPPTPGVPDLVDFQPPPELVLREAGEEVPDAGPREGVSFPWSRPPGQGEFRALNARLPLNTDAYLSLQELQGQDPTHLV
T1 sequence 3: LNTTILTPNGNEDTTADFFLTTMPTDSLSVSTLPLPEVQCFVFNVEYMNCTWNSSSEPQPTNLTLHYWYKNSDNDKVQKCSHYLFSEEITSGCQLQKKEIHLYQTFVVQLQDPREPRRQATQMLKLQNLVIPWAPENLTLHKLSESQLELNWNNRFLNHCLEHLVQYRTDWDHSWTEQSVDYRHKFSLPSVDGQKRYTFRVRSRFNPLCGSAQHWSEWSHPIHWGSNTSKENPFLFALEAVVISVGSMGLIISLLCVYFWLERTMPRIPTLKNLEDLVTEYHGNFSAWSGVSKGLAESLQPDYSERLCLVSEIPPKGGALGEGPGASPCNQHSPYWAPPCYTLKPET
Briefly: FACS on CHO-K1 hIL-2R αβγ 2D6 cells. On the procedure:
The medium was removed, followed by washing of the flask once with PBS buffer (purchased from Hyclone, Cat NO. SH30256.01). […] The cells were added into a U-shaped bottom 96-well FACS reaction plate at 70 μL per well and placed at 4° C. or on ice for later use. […] The plate was then washed twice with FACS buffer (PBS buffer containing 2% (w/w) bovine serum albumin). Fluorescence-labeled secondary antibody (purchased from Biolegend, Cat NO. 409306) was added into the plate at 100 μL per well and incubated on ice for 30 minutes. The plate was then washed twice with FACS buffer. Detection and analysis were performed by FACS (FACS Canto II, purchased from BD Company). Alternatively, the cells were suspended with 100 μL FACS buffer containing 2% (w/w) paraformaldehyde (purchased from DingGuo, Cat NO. AR-0211) and then stored at 4° C. until further FACS detection. 100 μL PBS buffer was added to each well before FACS detection. Detection and analysis was performed by FACS. The results are shown in FIG. 5A-FIG. 5D and Table 12-Table 13. […] The binding activity of IL-2 mutants to human IL-2 receptor βγ dimer on the cell surface was weaker than that of wild type IL-2. […] The MFI in the following tables is the average fluorescence intensity value of the detected cell populations.

Assay [2] concerns the target human IL-2 receptor βγ dimer on CHO-K1 cells (CHO-K1 hIL-2R βγ 2E6) (human) (UniProt P14784). The assay is described as follows: FACS on CHO-K1 hIL-2R βγ 2E6 cells.

1 molecule from patent publication US20230265148A1 (HAINAN SIMCERE PHARMACEUTICAL, published 2023) can be followed below.

B1: mut61.08-linker2-hFc (H16E/V91R/Y31V/A73L/H79Q) (Fc fusion)
chain: APTSSSTKKTQLQLEELLLDLQMILNGINNVKNPKLTRMLTFKFYMPKKATELKHLQCLEEELKPLEEVLNLLQSKNFQLRPRDLISNINRIVLELKGSETTFMCEYADETATIVEFLNRWITFAQSIISTLTGGGGSGGGGSGGGGS[here human IgG1 Fc with changes without letters]
notes: Whole fusion protein
In the case of B1, in assay [1], the “MFI at 0.0003 nM” value came to 190 MFI, the “MFI at 0.0015 nM” value was 303 MFI, the “MFI at 0.0075 nM” value stood at 575 MFI and the “MFI at 0.0376 nM” value was determined as 2130 MFI. In assay [1], the “MFI at 0.1882 nM” value amounted to 9560 MFI, the “MFI at 0.9412 nM” value amounted to 19000 MFI, the “MFI at 4.7059 nM” value is 19700 MFI and the “MFI at 23.529 nM” value is 22600 MFI. In assay [2], the MFI at 0.054 nM amounted to 141 MFI, the MFI at 0.161 nM was 146 MFI, the MFI at 0.484 nM stood at 144 MFI and the MFI at 1.452 nM was found to be 157 MFI. In assay [2], this molecule displayed an MFI at 4.357 nM of 144 MFI, an MFI at 13.072 nM of 144 MFI, an MFI at 39.216 nM of 163 MFI and an MFI at 117.65 nM of 164 MFI.
